# Results as given in PubChem BioAssay AID1963320 (National Center for Advancing Translational Sciences (NCATS), 2024).
# The campaign covered roughly 1,300 compounds. About 560 (43%) were called active. The set was probably picked from earlier hits. Inconclusive means that the source gave no clear call. Such entries were picked first, then a sample of the others. The call rests on the fitted dose curve; in most records, active means well fitted inhibition curve with a large enough effect; inconclusive means small, poorly fitted or top-dose-only effect; inactive means flat fitted curve, though single readings scatter. Potencies of inconclusive entries are doubtful fits and often do not repeat.
# Target: Luciferin 4-monooxygenase (Photinus pyralis) (UniProt P08659)
# Sequence of UniProt P08659 (P08659 whole entry, looked up): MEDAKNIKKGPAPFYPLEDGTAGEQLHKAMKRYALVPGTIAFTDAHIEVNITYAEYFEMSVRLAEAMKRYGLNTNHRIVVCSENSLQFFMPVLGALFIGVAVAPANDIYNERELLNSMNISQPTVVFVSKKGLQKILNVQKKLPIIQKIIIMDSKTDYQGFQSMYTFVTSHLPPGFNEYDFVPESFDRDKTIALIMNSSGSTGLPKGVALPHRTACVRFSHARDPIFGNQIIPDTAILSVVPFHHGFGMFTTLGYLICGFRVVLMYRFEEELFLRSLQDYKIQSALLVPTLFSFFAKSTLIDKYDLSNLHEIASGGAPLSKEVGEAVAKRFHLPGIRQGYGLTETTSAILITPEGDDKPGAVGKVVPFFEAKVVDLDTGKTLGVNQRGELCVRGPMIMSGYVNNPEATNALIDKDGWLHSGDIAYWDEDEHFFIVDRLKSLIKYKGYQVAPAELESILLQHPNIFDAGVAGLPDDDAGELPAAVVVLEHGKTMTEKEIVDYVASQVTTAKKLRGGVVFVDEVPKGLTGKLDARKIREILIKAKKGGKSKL
# Test: Firefly luciferase (FLuc-C-HiBiT) enzymatic inhibition screen - Functional assay
# Conditions: purified FLuc-C-HiBiT enzyme, luciferin luminescence; series mostly up to 32.7 µM; activity change, negative = inhibition: at the top concentration
# How it was run: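 Luminescence is read by CCD imager 5-10 min after adding 10 uM D-luciferin (KM) to 10 nM FLuc-C-HiBiT enzyme with 10 uM ATP. Compounds are preincubated with the enzyme for over 30 min at room temperature, protected from light.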
# Further: nearly all actives have a fitted effect of over 70% in size.
# On the % scale 0 is the no-effect control and ±100 the full control effect; potency means the concentration at half of the fitted maximal effect; tags describe the fitted curve by direction and shape.
SMILES,Potency,"activity change, negative = inhibition"
O=C(Nc1ccccc1)c1nc2c(o1)CCN(Cc1ccccn1)CC2,"inconclusive: 18 µM [inhibitor, partial curve]",
Cc1ccc(NC(=O)Nc2ccc(C)n(CC(=O)NC3CCCC3)c2=O)cc1,active: 0.7 µM,
CCOc1ccc2nc(N(Cc3cccnc3)C(=O)c3cccs3)sc2c1,,inactive: -18.7%
COc1ccc(C(=O)Nc2ccc3n(c2=O)C[C@H]2C[C@@H]3CN(C(=O)CCCC(=O)O)C2)cc1,"inconclusive: 15.7 µM [inhibitor, partial curve, poor fit]",
CCN(CC)S(=O)(=O)c1ccc2nc(NC(=O)c3cccnc3)sc2c1,"inconclusive: 12.4 µM [inhibitor, partial curve]",
Cc1ccn2c(Nc3ccc(C(C)C)cc3)c(-c3cccs3)nc2c1,"inconclusive: 11.1 µM [inhibitor, partial curve, poor fit]",
O=C(c1[nH]ncc1Cl)N1CCOC(Cc2cccc(C(F)(F)F)c2)C1 (centres undefined),,inactive: -14.5%
CC(CCc1ccc(O)cc1)N1CCOc2c(O)cc(-c3nc4ccccc4s3)cc2C1 (centres undefined),,inactive: -7.94%
c1ccc(Nc2cc3c(cn2)CN(Cc2ccn[nH]2)CCN3)cc1,"inconclusive: 16.1 µM [inhibitor, partial curve]",
CN1C[C@@H](NS(=O)(=O)c2ccc(C#N)cc2)C[C@H]1c1nc(-c2ccc(Cl)cc2)no1,"inconclusive: 11.1 µM [inhibitor, partial curve]",
CCC(=O)N1CCc2c(C(=O)O)cccc21,,inactive: -12.9%
CSCC(=O)Nc1nc2c(s1)C[C@]1(C)CC[C@@H]3[C@H](OC(=O)[C@H]3C)[C@H]1[C@@H]2C,active: 4.53 µM,
Cc1ccc(Cl)cc1-n1ncc2c(N3CCC(C(N)=O)CC3)ncnc21,,inactive: 0.685%
Cc1ccc(C(=O)Nc2ccc3oc(-c4cccnc4)nc3c2)c(Cl)c1,"inconclusive: 1.4 µM [inhibitor, full curve, poor fit]",
CNC(=O)c1cccc(-c2cnc(NC(=O)c3ccncc3)c3c2CCO3)c1,"inconclusive: 20.2 µM [inhibitor, partial curve]",
CC(=O)c1nn(-c2ccc(OC(F)(F)F)cc2)nc1Nc1ccccc1,"inconclusive: 0.7 µM [inhibitor, full curve]",
c1ccc(-c2noc(-c3nc(C4CC4)no3)n2)cc1,"inconclusive: 9.89 µM [inhibitor, partial curve]",
Cc1cccc(NC(=O)C2CCN(C(=O)c3ncn4c3COC(c3ccccc3)C4)CC2)c1 (centres undefined),active: 2.48 µM,
COc1ccc(CN2CCNc3cc(-c4ccccc4)ncc3C2)cn1,"inconclusive: 20.2 µM [inhibitor, partial curve]",
